Experimental data: the supplement of paper PMC10037445
The full ranking holds about 2,900 compounds; the median of “NF-kB SEAP reporter activity, fold change vs agonist alone” is about 0.99, and the highest 2% start at about 2.6. This is one part of the list.

How the values were obtained:
RAW-Dual [1] = assay: NF-kB SEAP reporter activity, fold change vs agonist alone; higher = enhanced NF-kB activity; settings: cytotoxicity flag (confluency mask): not cytotoxic
Summary of the method: (§1)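 Cytotoxic wells were those whose IncuCyte confluency was below 70% of agonist controls in both mask sets. The cells were RAW-Dual macrophages at 50,000 cells/well in DMEM on 384-well plates, dosed with 50 nL of library stock by pin tool, stimulated with a PRR agonist 1 h later, and kept at 37 °C, 5% CO2 for 20 hours. IRF and NF-κB reporter activity, as fold change over agonist-alone wells, came from supernatant read by QuantiLuc luminescence and QuantiBlue absorbance, respectively.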

RAW-Dual [2] = assay: NF-kB SEAP reporter activity, fold change vs agonist alone; cytotoxicity flag (confluency mask): not cytotoxic; higher = enhanced NF-kB activity
Summary of the method: as §1

[3] = agonist: ODN 1826 (TLR9) 0.5 ug/mL
[4] = agonist: Pam2CSK4 (TLR2/6) 0.1 ug/mL
[5] = agonist: Pam3CSK4 (TLR2/1) 0.1 ug/mL
[6] = library stock concentration (final ~1000-fold dilution): 10 mM, agonist: Imiquimod (TLR7) […]
[7] = library stock concentration (final ~1000-fold dilution): 10 mM, agonist: MPLA (TLR4) […]

C=C(C)C1CCC2(C)CCC3(C)C(CCC4C5(C)CCC(O)C(C)(C)C5CCC43C)C12 (configuration not stated)
NF-kB SEAP reporter activity (RAW-Dual [1]; library stock concentration (final ~1000-fold dilution): 2 mM, agonist: Imiquimod (TLR7) […]): 1
NF-kB SEAP reporter activity (RAW-Dual [1]; library stock concentration (final ~1000-fold dilution): 2 mM, agonist: MPLA (TLR4) […]): 1.05

C=C(C)C1CCC2(C)CCC3(C)C(CCC4C5(C)CCC(O)C(C)(C)C5CCC43C)C12 (configuration not stated) (library stock concentration (final ~1000-fold dilution): 2 mM)
NF-kB SEAP reporter activity (RAW-Dual [2]; agonist: LPS (TLR4) 0.1 ug/mL): 1.25
NF-kB SEAP reporter activity (RAW-Dual [2]; [3]): 0.949
NF-kB SEAP reporter activity (RAW-Dual [2]; [4]): 1.06
NF-kB SEAP reporter activity (RAW-Dual [2]; [5]): 0.917

CC(C)=CCC/C(C)=C/CC/C(C)=C/CSc1ccccc1C(=O)O
NF-kB SEAP reporter activity (RAW-Dual [1]; [6]): 0.904
NF-kB SEAP reporter activity (RAW-Dual [1]; [7]): 0.878

CC(C)=CCC/C(C)=C/CC/C(C)=C/CSc1ccccc1C(=O)O (library stock concentration (final ~1000-fold dilution): 10 mM)
NF-kB SEAP reporter activity (RAW-Dual [2]; agonist: LPS (TLR4) 0.1 ug/mL): 0.724
NF-kB SEAP reporter activity (RAW-Dual [2]; [3]): 0.671
NF-kB SEAP reporter activity (RAW-Dual [2]; [4]): 0.914
NF-kB SEAP reporter activity (RAW-Dual [2]; [5]): 0.68

Br.CN(C)CCCC1(c2ccc(F)cc2)OCc2cc(C#N)ccc21 (configuration not stated)
NF-kB SEAP reporter activity (RAW-Dual [1]; [7]): 1.01

Br.CN(C)CCCC1(c2ccc(F)cc2)OCc2cc(C#N)ccc21 (configuration not stated) (library stock concentration (final ~1000-fold dilution): 10 mM)
NF-kB SEAP reporter activity (RAW-Dual [2]; agonist: LPS (TLR4) 0.1 ug/mL): 1.15
NF-kB SEAP reporter activity (RAW-Dual [2]; [3]): 0.889
NF-kB SEAP reporter activity (RAW-Dual [2]; [4]): 0.786
NF-kB SEAP reporter activity (RAW-Dual [2]; [5]): 0.857

O=C1C(O)=C(O)OC1C(O)CO (configuration not stated) (library stock concentration (final ~1000-fold dilution): 10 mM)
NF-kB SEAP reporter activity (RAW-Dual [2]; agonist: LPS (TLR4) 0.1 ug/mL): 1.19
NF-kB SEAP reporter activity (RAW-Dual [2]; [3]): 1.12
NF-kB SEAP reporter activity (RAW-Dual [2]; [4]): 1.02
NF-kB SEAP reporter activity (RAW-Dual [2]; [5]): 1.12

O=C1C(O)=C(O)OC1C(O)CO (configuration not stated)
NF-kB SEAP reporter activity (RAW-Dual [1]; [6]): 0.771
NF-kB SEAP reporter activity (RAW-Dual [1]; [7]): 0.985

COc1cc2ncnc(Oc3ccc(CC(=O)Nc4cnn(C(C)C)c4)cc3)c2cc1OC
NF-kB SEAP reporter activity (RAW-Dual [1]; [6]): 0.73
NF-kB SEAP reporter activity (RAW-Dual [1]; [7]): 0.796

COc1cc2ncnc(Oc3ccc(CC(=O)Nc4cnn(C(C)C)c4)cc3)c2cc1OC (library stock concentration (final ~1000-fold dilution): 10 mM)
NF-kB SEAP reporter activity (RAW-Dual [2]; agonist: LPS (TLR4) 0.1 ug/mL): 1.02
NF-kB SEAP reporter activity (RAW-Dual [2]; [3]): 0.813
NF-kB SEAP reporter activity (RAW-Dual [2]; [4]): 0.81
NF-kB SEAP reporter activity (RAW-Dual [2]; [5]): 0.722

CC(C)(C)/[N+]([O-])=C/c1ccc(S(=O)(=O)O)cc1S(=O)(=O)O
NF-kB SEAP reporter activity (RAW-Dual [1]; [6]): 0.926
NF-kB SEAP reporter activity (RAW-Dual [1]; [7]): 0.997

CC(C)(C)/[N+]([O-])=C/c1ccc(S(=O)(=O)O)cc1S(=O)(=O)O (library stock concentration (final ~1000-fold dilution): 10 mM)
NF-kB SEAP reporter activity (RAW-Dual [2]; agonist: LPS (TLR4) 0.1 ug/mL): 1.29
NF-kB SEAP reporter activity (RAW-Dual [2]; [3]): 0.946
NF-kB SEAP reporter activity (RAW-Dual [2]; [4]): 1.02
NF-kB SEAP reporter activity (RAW-Dual [2]; [5]): 1.02

C=CCCC(=O)O
NF-kB SEAP reporter activity (RAW-Dual [1]; [6]): 0.98
NF-kB SEAP reporter activity (RAW-Dual [1]; [7]): 1.01
